# Assay results published in publication PMC5260975.
# The chains behind the UniProt entries cited, without tags or fusion partners.
# UniProt P25963: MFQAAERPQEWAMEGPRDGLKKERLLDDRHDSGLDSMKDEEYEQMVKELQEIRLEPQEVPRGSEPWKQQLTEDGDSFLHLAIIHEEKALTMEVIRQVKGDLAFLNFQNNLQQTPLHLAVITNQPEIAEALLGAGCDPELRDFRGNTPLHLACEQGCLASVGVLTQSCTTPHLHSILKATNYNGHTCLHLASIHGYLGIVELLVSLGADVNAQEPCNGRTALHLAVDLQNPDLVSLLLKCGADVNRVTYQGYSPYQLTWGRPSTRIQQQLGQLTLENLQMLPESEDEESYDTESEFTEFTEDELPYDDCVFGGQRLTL
# UniProt Q04206: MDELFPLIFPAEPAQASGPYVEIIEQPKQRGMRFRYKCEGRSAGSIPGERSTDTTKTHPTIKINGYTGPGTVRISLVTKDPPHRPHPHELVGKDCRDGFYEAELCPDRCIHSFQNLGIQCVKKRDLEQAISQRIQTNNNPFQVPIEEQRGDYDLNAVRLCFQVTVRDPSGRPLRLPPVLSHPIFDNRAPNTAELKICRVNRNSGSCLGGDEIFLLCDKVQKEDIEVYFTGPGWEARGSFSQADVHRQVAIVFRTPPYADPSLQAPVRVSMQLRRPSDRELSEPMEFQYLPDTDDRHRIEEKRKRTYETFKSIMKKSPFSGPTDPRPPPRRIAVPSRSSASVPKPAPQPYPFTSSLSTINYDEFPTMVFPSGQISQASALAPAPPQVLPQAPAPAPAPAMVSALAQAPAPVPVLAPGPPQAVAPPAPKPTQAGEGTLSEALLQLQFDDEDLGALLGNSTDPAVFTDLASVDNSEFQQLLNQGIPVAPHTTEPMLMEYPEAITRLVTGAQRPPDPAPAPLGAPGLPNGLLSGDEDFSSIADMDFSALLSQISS
# These are yes or no findings as the source states them, for the method shown. Binding seen in cells or lysates may run through a third protein. Some results given as binding are weak or reduced against the parent protein; the word gives no strength. For part of these data: Tags and fused reporters may be left off the sequences shown.
# What was measured:
# [1] = target: T1, ankyrin-repeat-containing, SH3-domain-containing, and proline-rich region-containing protein 2 (ASPP2), endogenous (human (endogenous in HCC-LM3)) (UniProt Q13625); experiment: co-IP; HCC-LM3 lysates, immunoprecipitated with anti-ASPP2, western blot; control cells, cells transfected with pASPP2 and ASPP2-silenced cells
# T1 sequence: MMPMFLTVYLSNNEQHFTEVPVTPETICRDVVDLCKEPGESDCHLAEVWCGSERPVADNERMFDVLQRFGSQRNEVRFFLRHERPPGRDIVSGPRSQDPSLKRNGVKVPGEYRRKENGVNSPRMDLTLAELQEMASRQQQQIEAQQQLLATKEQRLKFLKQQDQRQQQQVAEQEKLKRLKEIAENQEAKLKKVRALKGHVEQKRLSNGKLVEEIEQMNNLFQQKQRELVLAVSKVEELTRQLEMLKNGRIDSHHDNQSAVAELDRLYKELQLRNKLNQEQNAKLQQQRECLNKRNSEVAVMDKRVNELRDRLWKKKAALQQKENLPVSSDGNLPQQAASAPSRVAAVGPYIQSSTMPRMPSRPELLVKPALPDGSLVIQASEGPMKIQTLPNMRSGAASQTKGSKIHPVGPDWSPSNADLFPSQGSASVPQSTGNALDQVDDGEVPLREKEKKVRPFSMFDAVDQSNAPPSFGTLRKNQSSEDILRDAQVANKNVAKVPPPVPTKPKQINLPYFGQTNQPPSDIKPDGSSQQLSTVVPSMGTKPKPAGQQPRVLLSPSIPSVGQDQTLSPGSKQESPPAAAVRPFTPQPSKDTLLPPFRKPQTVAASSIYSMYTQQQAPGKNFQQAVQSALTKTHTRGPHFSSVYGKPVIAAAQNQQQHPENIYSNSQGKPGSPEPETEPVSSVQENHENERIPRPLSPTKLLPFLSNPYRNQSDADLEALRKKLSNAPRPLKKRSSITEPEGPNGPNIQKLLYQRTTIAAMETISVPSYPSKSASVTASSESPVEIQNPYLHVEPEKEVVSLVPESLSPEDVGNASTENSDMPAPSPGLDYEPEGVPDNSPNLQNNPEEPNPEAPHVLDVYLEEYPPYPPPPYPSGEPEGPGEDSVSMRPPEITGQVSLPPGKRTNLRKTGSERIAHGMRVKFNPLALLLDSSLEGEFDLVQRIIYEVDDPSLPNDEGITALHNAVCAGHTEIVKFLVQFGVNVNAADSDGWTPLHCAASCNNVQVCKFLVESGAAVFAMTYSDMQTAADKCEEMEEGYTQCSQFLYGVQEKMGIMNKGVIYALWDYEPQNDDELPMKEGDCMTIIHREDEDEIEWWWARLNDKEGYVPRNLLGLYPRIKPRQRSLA
# V5-tagged ASPP2(1-360) = target: T2, V5-tagged ASPP2(1-360) (UniProt Q13625); experiment: co-IP; HEK293T co-transfected with Flag-BECN1 and V5-tagged ASPP2 (full length or fragments), EBSS 6 h at 24 h after transfection; IP with anti-V5 (in Figure 4b also with anti-Flag), western blot
# T2 sequence: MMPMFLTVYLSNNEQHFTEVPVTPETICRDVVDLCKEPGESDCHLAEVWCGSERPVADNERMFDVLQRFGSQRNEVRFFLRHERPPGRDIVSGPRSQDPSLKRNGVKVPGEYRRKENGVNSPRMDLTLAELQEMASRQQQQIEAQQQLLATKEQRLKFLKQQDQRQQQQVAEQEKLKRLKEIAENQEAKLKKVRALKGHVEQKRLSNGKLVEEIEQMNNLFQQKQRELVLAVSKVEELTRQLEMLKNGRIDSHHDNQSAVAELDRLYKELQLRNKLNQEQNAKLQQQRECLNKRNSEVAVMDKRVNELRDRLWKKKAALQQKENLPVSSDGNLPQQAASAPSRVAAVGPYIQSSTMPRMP
# V5-tagged ASPP2(360-925) = target: T3, V5-tagged ASPP2(360-925) (UniProt Q13625); experiment: as above
# T3 sequence: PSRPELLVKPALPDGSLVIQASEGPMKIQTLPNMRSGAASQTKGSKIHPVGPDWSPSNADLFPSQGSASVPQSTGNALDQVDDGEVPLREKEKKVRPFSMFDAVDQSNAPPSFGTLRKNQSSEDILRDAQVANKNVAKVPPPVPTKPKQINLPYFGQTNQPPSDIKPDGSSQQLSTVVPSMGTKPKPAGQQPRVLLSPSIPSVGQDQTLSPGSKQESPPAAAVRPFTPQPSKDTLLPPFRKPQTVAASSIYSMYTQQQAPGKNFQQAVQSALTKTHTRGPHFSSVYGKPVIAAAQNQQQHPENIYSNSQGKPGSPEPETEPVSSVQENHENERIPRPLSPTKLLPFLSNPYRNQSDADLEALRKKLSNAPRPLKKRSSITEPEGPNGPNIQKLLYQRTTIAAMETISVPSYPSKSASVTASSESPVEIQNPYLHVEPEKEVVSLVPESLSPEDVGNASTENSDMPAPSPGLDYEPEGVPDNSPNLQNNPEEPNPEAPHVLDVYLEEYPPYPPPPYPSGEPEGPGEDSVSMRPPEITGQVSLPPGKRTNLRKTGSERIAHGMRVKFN
# [2] = target: T4, V5-tagged ASPP2(925-1128) (UniProt Q13625); experiment: as above
# T4 sequence: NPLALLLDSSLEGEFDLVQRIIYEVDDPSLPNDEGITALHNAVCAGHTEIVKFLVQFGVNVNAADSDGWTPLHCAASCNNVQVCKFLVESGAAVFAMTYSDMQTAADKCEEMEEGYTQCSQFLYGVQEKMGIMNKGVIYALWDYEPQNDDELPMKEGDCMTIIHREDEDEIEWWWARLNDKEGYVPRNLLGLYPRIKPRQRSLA
# [3] = target: T5, V5-tagged full-length ASPP2 (UniProt Q13625); experiment: as above
# T5 sequence: T1 sequence
binding [1],binding (V5-tagged ASPP2(1-360)),binding (V5-tagged ASPP2(360-925)),binding [2],binding [3],Substance
binds,–,–,–,–,"IκBα, endogenous (from UniProt P25963 1-317)"
–,binds,no binding,no binding,binds,Flag-tagged full-length BECN1 (from UniProt Q14457 1-450)
binds,–,–,–,–,"p65/RelA, endogenous (from UniProt Q04206 1-551)"
